Test results: the supplement of paper PMC3334620
In all, about 33,000 sequences were measured (“E-score (-0.5 to 0.5)”: median about -0.013, highest 2% from about 0.3 on). This is one part of the list.

Molecular target: T1, Msn1 (UniProt P22148)
T1 sequence: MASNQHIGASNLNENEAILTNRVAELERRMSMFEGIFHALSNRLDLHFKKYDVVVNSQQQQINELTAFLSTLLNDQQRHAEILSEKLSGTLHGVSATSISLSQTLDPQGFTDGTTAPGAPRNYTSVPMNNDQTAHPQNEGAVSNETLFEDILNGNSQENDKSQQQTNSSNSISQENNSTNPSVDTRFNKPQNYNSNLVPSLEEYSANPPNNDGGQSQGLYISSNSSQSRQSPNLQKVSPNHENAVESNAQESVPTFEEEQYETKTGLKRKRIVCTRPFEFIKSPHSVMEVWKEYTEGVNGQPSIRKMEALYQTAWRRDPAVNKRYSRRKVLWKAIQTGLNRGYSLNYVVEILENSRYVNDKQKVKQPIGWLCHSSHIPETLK
Assay: PBM E-score (8-mer binding enrichment) (E-score (-0.5 to 0.5)); higher = stronger / more preferred TF binding; most listed sequences are background and not binding sites
Conditions: protein concentration: 200 nM; construct: GST-full length
Outline: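 Universal all-10-mer Agilent arrays, double-stranded by primer extension on fresh or once-stripped slides, were probed with about 100-200 nM GST-tagged yeast transcription factors made by PURExpress. Fluorescent anti-GST detected bound protein, and masliner normalised the scans. E-scores from the Universal PBM Analysis Suite were given to each ungapped eight-base word pooled with its reverse complement.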

Sequence	PBM E-score
ATGCTGAA	-0.0631
ATCCCCTG	-0.287
ACTGCTTG	-0.0699
ACTACAGA	0.149
TGATATAA	-0.139
CCGGCGAG	0.0887
GAGGGAGC	-0.414
AGGTTTAA	0.0706
CGTCAGTA	-0.102
AAAACGAG	-0.0903
GAGAAGCC	-0.291
TGCCCGAA	0.0762
GTATCCGA	0.11
GAAGTCGC	-0.0763
CCACGGAA	0.0464
ACGCCTTA	-0.15
GCTGTGCC	0.00582
CCAATAAG	-0.00719
GAGCTACC	-0.0916
CATTGACC	0.0616
ACTTCCAT	0.0709
GGGTCCTA	-0.0969
GGTCGCAC	-0.0298
CGACAACA	0.204
ATTTTCCA	0.139

Sequence	PBM E-score
CTTCATAA	0.0998
AATACCGC	0.0467
CCACTAGG	-0.279
CATATAAG	0.13
ACCGTATC	0.0317
AGGCTAAG	-0.177
CGATTACC	-0.134
CTTCGCTA	-0.0488
AGACAAAT	0.482
TCAGAGAA	-0.0706
CTTCGGTA	-0.0133
AGTTCGAA	0.113
CACTGACC	-0.0291
GTAACAAA	0.125
CTCTCAAC	-0.112
GCCTCTTA	-0.05
ACCTCACG	-0.15
CTAATGCC	-0.0689
GGTATCGA	0.0605
AGAGGATG	-0.171
AACACAGG	-0.109
CGTGAACC	-0.0965
AAGCGGCG	-0.0525
GAGTGGGC	-0.112
AATTCTGC	0.0265

Sequence	PBM E-score
CACAACCA	0.123
TACATCAA	-0.0704
CCGACTCG	0.0163
AGATTTGG	-0.123
GCCTGTAC	0.13
CACTTCGC	-0.0275
GGGAACCC	-0.186
CATGAAAA	0.218
CCGGCTCG	0.115
CGACGAGA	0.0183
CGGACACG	0.338
AACTGTAG	-0.167
AAGTATCC	-0.0327
CGGGGGTC	-0.376
AAATACAA	0.22
AGACCACT	-0.101
AATAAGTC	0.274
GCCAGCGA	-0.21
AACGGTTA	-0.14
AACTTATT	0.0956
ACACTAGC	0.0176
CAATGAAG	0.115
AATAGTAT	0.187
CTATGTTC	0.103
ATGGGGCC	-0.377

Sequence	PBM E-score
AACAGAGA	-0.0334
CCATCAAC	0.105
AAGTAGTA	0.0342
ATACTCCC	-0.0635
CGCGAATC	0.06
ACCAAGAA	0.16
TAGCAGAA	0.0663
ATTTAGCA	-0.102
AGGATGAG	-0.236
TTCGAAAA	0.264
AGGGAGAC	-0.0522
CCTCTGGC	-0.147
ACGTGGAA	0.113
AGCTTGTG	-0.0474
GTTGCCCA	0.0903
GTGCTACA	-0.173
GGATCCCC	-0.27
CATCTGCA	-0.0969
CTTGGCCC	-0.373
AGAATCAA	0.109
AACGGAAG	0.0374
CCGTTCAA	0.0479
GTAATCCA	-0.0299
CACGCTAG	-0.0343
ACTCCATG	-0.154

Sequence	PBM E-score
CCGAAACC	-0.0668
AACTCATC	0.0101
GGGCTAAC	-0.272
CGGCGTGC	-0.17
GCAGAGCC	-0.149
CTATTGCC	-0.248
AACACTGA	-0.0626
AAATAAGT	0.237
ATAGCAGC	0.0248
ACCCTAGC	-0.155
ATACATAC	-0.0367
ACCACTCG	-0.0126
CCCTCCTC	-0.419
GTAGTGGA	0.224
AGTCTTTG	0.033
CTTTGACC	0.0298
TCTTTCAA	0.0815
GGCCTTGA	-0.1
GCATCGGA	0.092
CGGATTCA	-0.0351
ACGTACCA	-0.0307
AATCTCTC	-0.252
TAACAGCA	0.0293
ACGGTTAG	-0.16
GCTGAGGA	-0.0168

Sequence	PBM E-score
AATCCGAG	-0.0555
AGGAATGC	-0.195
AACAGCAC	0.106
CTAAGCAA	-0.0827
GTTTAGTA	0.261
AAGCTCTG	-0.123
ACGAATTG	0.138
GTTTTGCA	0.0182
AGTTTCTG	-0.0795
GAGCTTCA	0.0163
AGCTCTCA	-0.125
CGAACGAA	0.0449
CCCAGTGC	-0.208
CAAGTTTA	0.0923
GCGGTTAC	-0.0579
GATCGAAC	-0.158
TAGGTCAA	0.115
CGTAATAG	0.0163
ATAGTCTA	-0.0808
TCCGTCCA	0.221
CCTAATTA	-0.0274
CCCCCATC	-0.282
AATCCGGC	-0.115
GTCCTTAA	0.433
CTGCATCC	-0.0326

Sequence	PBM E-score
ACAAACAA	0.277
ATATATTC	0.163
CCACCTGC	-0.169
CAGTCATC	-0.227
CGTACCGA	0.0482
CCTTTCTC	-0.257
GCGGGTAA	-0.164
AGCATTAT	0.00573
CATAGAGG	-0.0712
GGCCGTAC	-0.0476
GGGTATTA	-0.0401
ACGAGGTC	0.0215
ACCCGAAA	-0.0297
AATTAGGC	0.154
CGTGAACA	0.0777
ATATGTGC	-0.00808
CTCATTTC	0.0388
ACTGGTAC	0.034
ATTTGCCC	0.0584
CGTCATGA	0.0599
ATACCGAG	-0.116
TGGGCCCA	-0.128
